The record followed here is PubChem BioAssay AID1745853 (National Center for Advancing Translational Sciences (NCATS), 2022).

SMILES strings stand for the structures. The list shows a part of the results. The main result of the screen is listed elsewhere. These columns were measured beside it and carry no call.

Common to all, as to assay: Primary Screen for Target Class Profiling of Small Molecule Inhibitors of Methyltransferases
Experiment [1] has as its target Glycine N-methyltransferase (Homo sapiens) (UniProt Q14749). The settings on record: purified enzyme, MTase-Glo SAH luminescence; measured here: GNMT inhibition; at 40 µM; stronger effect = lower value. In outline:
(§1)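 Each enzyme was reacted with SAM and its substrate, with compounds tested once at 40 uM; SAH formed was read by MTase-Glo luminescence.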

The target of experiment [2] is Guanidinoacetate N-methyltransferase (Homo sapiens) (UniProt Q14353). The note with it: purified enzyme, MTase-Glo SAH luminescence; measured here: GAMT inhibition; at 40 µM; stronger effect = lower value. In outline: as §1
In experiment [3] the target is Histamine N-methyltransferase (Homo sapiens) (UniProt P50135). The note with it: purified enzyme, MTase-Glo SAH luminescence; measured here: HNMT inhibition; at 40 µM; stronger effect = lower value. In a few lines: as §1
Experiment [4] concerns the target Nicotinamide N-methyltransferase (Homo sapiens) (UniProt P40261). The note with it: purified enzyme, MTase-Glo SAH luminescence; measured here: NNMT inhibition; at 40 µM; stronger effect = lower value. In outline: as §1
The target of experiment [5] is Phenylethanolamine N-methyltransferase (Homo sapiens) (UniProt P11086). The note with it: purified enzyme, MTase-Glo SAH luminescence; measured here: PNMT inhibition; at 40 µM; stronger effect = lower value. In a few lines: as §1
On the % scale 0 is the no-effect control and ±100 the full control effect.

`CN1CCC2(C1)CN(Cc1ccccc1)c1ccc(C(=O)N3CCOCC3)cc12` (stereo not drawn): the activity change, negative = inhibition was -4.54% in experiment [1]; -2.45% in experiment [2]; -3.83% in experiment [3]; -12.8% in experiment [4]; -21.2% in experiment [5].

With `CC1(C(=O)NCc2ccccc2)Cn2c(ccc2-c2ccco2)C(=O)N1c1ccc(F)cc1` (stereo not drawn), the activity change, negative = inhibition in experiment [1] is -9.26%; in experiment [2], 4.52%; in experiment [3] it was 2.49%; in experiment [4], -0.88%; in experiment [5] it was -0.816%.

Turning to `CC(C)CCn1c(=O)c2ccccc2n2c(=O)n(CC(=O)Nc3ccc4c(c3)OCO4)nc12`, the activity change, negative = inhibition in experiment [1] was 3.4%; in experiment [2] it was 4.87%; in experiment [3], 2.68%; in experiment [4], -1.3%; in experiment [5], 3.96%.

For `CC1CCN(Cc2nnnn2CCCC(=O)N2CCN(CCO)CC2)CC1`, the activity change, negative = inhibition in experiment [1] was -0.987%; in experiment [2], 0.024%; in experiment [3], 0.839%; in experiment [4], 2.5%; in experiment [5] it was 7.88%.

For `CN(Cc1ccccc1)C(=O)[C@H]1C[C@@H](O)[C@H](O)[C@@H]2N=C(Nc3ccc(-n4cccn4)cc3)S[C@@H]21`, the activity change, negative = inhibition in experiment [1] is -11.2%; in experiment [2], -4.81%; in experiment [3], -5.68%; in experiment [4], -12.3%; in experiment [5], -3.14%.

`O=C(c1ccncc1)N1CCCC(CN2CCCC2)CC1` (stereo not drawn): the activity change, negative = inhibition in experiment [1] was -7.09%; in experiment [2] it was -7.79%; in experiment [3], -18.6%; in experiment [4], -9.14%; in experiment [5], -3.19%.

Regarding `CC1(C(=O)NC2CCCCCC2)Cn2c(cc3occc32)C(=O)N1CCCc1ccccc1` (stereo not drawn), the activity change, negative = inhibition in experiment [1] turned out to be 1.85%; in experiment [2] it was 0%; in experiment [3], 10.1%; in experiment [4], 0.145%; in experiment [5], 1.86%.

As for `CCc1ccc(CNC(=O)C(CC)n2ccc3cc(S(=O)(=O)N4CCCCC4)ccc32)cc1` (stereo not drawn), the activity change, negative = inhibition in experiment [1] is 4.47%; in experiment [2] it was 6.11%; in experiment [3], 0.98%; in experiment [4], -6.78%; in experiment [5] it was 0.606%.

Take `C=CCNC(=O)N[C@H]1CCN(C(=O)CC(C)(C)C)[C@@H]1C(=O)N[C@@H](Cc1cccs1)C(N)=O`: the activity change, negative = inhibition in experiment [1] is -6.11%; in experiment [2], -12.1%; in experiment [3], -4.64%; in experiment [4], -7.23%; in experiment [5], -10.2%.

In the case of `COc1ccccc1-c1nnc2n(Cc3ccc(C)cc3)c(=O)c3ccccc3n12`, the activity change, negative = inhibition in experiment [1] was -13.6%; in experiment [2], -3.15%; in experiment [3], -9.77%; in experiment [4], -12%; in experiment [5], -10.4%.

Turning to `CCCCCCCCC(=O)N[C@H](CN1CCCC1)[C@H](O)c1ccc2c(c1)OCCO2`, the activity change, negative = inhibition was -6.39% in experiment [1]; -4.95% in experiment [2]; 0.323% in experiment [3]; -20.1% in experiment [4]; -1.4% in experiment [5].

In the case of `C=C1C(OC2OC(CO)C(O)C(O)C2O)CC2C(C)(C)C(O)CCC2(C)C1CC/C(C)=C\COC(=O)CC(=O)O` (stereo not drawn), the activity change, negative = inhibition was -5.08% in experiment [1]; 3.1% in experiment [2]; 5.2% in experiment [3]; -8.23% in experiment [4]; 7.31% in experiment [5].

Turning to `CCOc1ccc(N2C(=O)c3cc(C(=O)OC)nn3CC2(C)C(=O)NC2CCCCCC2)cc1` (stereo not drawn), the activity change, negative = inhibition in experiment [1] is -3.71%; in experiment [2], 3.67%; in experiment [3] it was 0.365%; in experiment [4] it was -4.55%; in experiment [5], -6.47%.

For the molecule `COc1cccc(CN2CC(C(=O)NCc3n[nH]c(=O)[nH]3)CCC2=O)c1` (stereo not drawn), the activity change, negative = inhibition in experiment [1] was -1.31%; in experiment [2], 2.73%; in experiment [3], 1.16%; in experiment [4], -3.27%; in experiment [5], 11.9%.

Turning to `CCc1nc(NC(=O)Cn2nc3c(cc2=O)CCCC3)sc1C`, the activity change, negative = inhibition is -12.4% in experiment [1]; -5.1% in experiment [2]; -4.75% in experiment [3]; -14.8% in experiment [4]; -7.46% in experiment [5].

For the molecule `CN1CCN(C(c2ccc(F)cc2)c2sc3nc(-c4ccco4)nn3c2O)CC1` (stereo not drawn), the activity change, negative = inhibition in experiment [2] is -2.03%; in experiment [4], -6.39%; in experiment [5], 5.59%.

On to `COC(=O)C1=C(C)NC(COC(N)=O)=C(C(=O)OC(C)C)C1c1cccc(Cl)c1Cl` (stereo not drawn), for which the activity change, negative = inhibition in experiment [1] was -3.05%; in experiment [2] it was -2.98%; in experiment [3], 7.78%; in experiment [4], -26.5%; in experiment [5] it was -2.33%.

Turning to `O=C(OCC1=C[C@@H](O)[C@@H]2C=CO[C@@H](O[C@@H]3O[C@H](CO)[C@@H](O)[C@H](O)[C@H]3O)[C@H]12)c1ccc(O)cc1`, the activity change, negative = inhibition was -5.05% in experiment [1]; -7.58% in experiment [2]; 5.7% in experiment [3]; -17.1% in experiment [4]; 0.391% in experiment [5].

As to `CC(=O)NCCCCn1c2c(c3ccccc31)C(=O)NCC2`, the activity change, negative = inhibition is 1.26% in experiment [1]; -15.8% in experiment [2]; 11.2% in experiment [3]; -15.9% in experiment [4]; -53.5% in experiment [5].

With `C=C(C(=O)OC)C1C(O)CC2(C)C(=O)CCC(O)(CO)C2C1O` (stereo not drawn), the activity change, negative = inhibition was -1.8% in experiment [1]; 1.69% in experiment [2]; 7.18% in experiment [3]; -5.2% in experiment [4]; -6.77% in experiment [5].

For `CC(=O)NC1(C)CCN(Cc2cnc(-c3cccc(F)c3)s2)CC1`, the activity change, negative = inhibition was -11.3% in experiment [1]; -12.9% in experiment [2]; -5.85% in experiment [3]; -23.7% in experiment [4]; -22.8% in experiment [5].

As to `O=C(Cc1ccccc1)NCc1nnc2n1C(C(=O)O)CC2` (stereo not drawn), the activity change, negative = inhibition was -7.52% in experiment [1]; -9.39% in experiment [2]; -3.34% in experiment [3]; -6.27% in experiment [4]; -8.34% in experiment [5].

In the case of `COc1cc([C@H]2OC[C@]3(OC(C)=O)[C@@H](c4ccc(O[C@@H]5O[C@H](CO)[C@@H](O)[C@H](O)[C@H]5O)c(OC)c4)OC[C@H]23)ccc1O`, the activity change, negative = inhibition was 0% in experiment [1]; 6.68% in experiment [2]; 8.76% in experiment [3]; -5.14% in experiment [4]; 3.75% in experiment [5].

As for `CCC(C)NC(=O)c1ccc2c(=O)n(CCC(C)C)c3nn(Cc4ccc(C)cc4)c(=O)n3c2c1` (stereo not drawn), the activity change, negative = inhibition is 4.54% in experiment [1]; 0% in experiment [2]; 6.47% in experiment [3]; -1.23% in experiment [4]; 4.77% in experiment [5].

Turning to `Cc1nc(N(C)C)ncc1C(=O)N1CCN(c2ccccc2C#N)CC1`, the activity change, negative = inhibition was -5.52% in experiment [1]; -8.43% in experiment [2]; -3.21% in experiment [3]; -15.4% in experiment [4]; -26.5% in experiment [5].

With `CC1(C)CCC=[N+]1[O-]`, the activity change, negative = inhibition is 4.71% in experiment [1]; 13.5% in experiment [2]; 8.86% in experiment [3]; -2.28% in experiment [4]; 5.88% in experiment [5].

As to `Cc1ccc(C)c(Cn2nc3n(Cc4ccc(F)cc4)c(=O)c4ccccc4n3c2=O)c1`, the activity change, negative = inhibition in experiment [1] came out at 5.56%; in experiment [2], 1.25%; in experiment [3], 8.82%; in experiment [4], 7.71%; in experiment [5], 3.68%.

For `CCCN1C(=O)c2cc3oc(C)cc3n2CC1(C)C(=O)NC1CCCCCC1` (stereo not drawn), the activity change, negative = inhibition in experiment [1] is -6.83%; in experiment [2] it was 4.7%; in experiment [3], -1.92%; in experiment [4] it was -6.22%; in experiment [5] it was -4.23%.

On to `CC(C)CCNC(=O)C1(C)Cn2nc(C(=O)NCCc3ccccc3)cc2C(=O)N1C` (stereo not drawn), for which the activity change, negative = inhibition was -1.89% in experiment [1]; 1.47% in experiment [2]; 5.49% in experiment [3]; 2.37% in experiment [4]; 0.315% in experiment [5].

On to `CCCN1C(=O)c2nc3ccccc3n2CC1(C)C(=O)NC1CCCC(C)C1C` (stereo not drawn), for which the activity change, negative = inhibition in experiment [1] was 8.73%; in experiment [2] it was 1.93%; in experiment [3], 8.74%; in experiment [4] it was 0.036%; in experiment [5] it was 4.31%.
